Measurements as given in PubChem BioAssay AID360 (National Center for Advancing Translational Sciences (NCATS), 2006).
Screen size: about 48,000 compounds; about 550 (1.1%) were called active. Another 4% or so got no clear call; they are omitted. No stated cut-off is given here; in the data, active means potency below about 15 µM; inconclusive means mostly about 16 µM to 33 µM; inactive means weaker than that. This is one part of the list.

target: Lysosomal acid glucosylceramidase (Homo sapiens) (UniProt P04062); assay: Glucocerebrosidase; conditions: purified enzyme, resorufin glucoside fluorescence (screen aimed at inhibitors), 20 min;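 further: the screen sought inhibitors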
Procedure, shortened: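 Normal human glucocerebrosidase (0.2 nM final) was assayed with resorufin β-D-glucopyranoside (30 uM final) in 50mM citric acid/KH2PO4, 10mM sodium taurocholate, 0.01% tween-20, pH 5.9. Compounds were titrated; fluorescence (Ex 548, Em 600) read after 20 min at RT.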
Potency means the concentration at half of the fitted maximal effect.

Sequence of UniProt P04062 (P04062 whole entry, looked up): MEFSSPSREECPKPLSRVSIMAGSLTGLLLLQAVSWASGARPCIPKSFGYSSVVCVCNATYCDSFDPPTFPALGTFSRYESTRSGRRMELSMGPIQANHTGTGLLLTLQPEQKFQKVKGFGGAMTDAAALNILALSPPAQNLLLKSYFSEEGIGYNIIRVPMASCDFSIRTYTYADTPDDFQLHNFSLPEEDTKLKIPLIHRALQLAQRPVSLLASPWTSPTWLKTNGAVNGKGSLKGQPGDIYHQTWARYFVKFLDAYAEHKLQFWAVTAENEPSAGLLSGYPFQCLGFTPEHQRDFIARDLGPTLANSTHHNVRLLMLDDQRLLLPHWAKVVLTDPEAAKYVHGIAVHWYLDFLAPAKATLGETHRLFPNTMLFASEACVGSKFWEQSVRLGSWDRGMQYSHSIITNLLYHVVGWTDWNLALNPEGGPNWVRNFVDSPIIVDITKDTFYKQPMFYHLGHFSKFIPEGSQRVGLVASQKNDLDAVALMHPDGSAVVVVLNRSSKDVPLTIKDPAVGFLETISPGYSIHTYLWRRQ

Structure (SMILES) | Potency
COC(=O)CSc1nc2cc3c(cc2cc1C)OCCO3 | inactive: > 76.9 µM
Cc1ccc(CN2C(=O)CCC2C(=O)NC2CC2)cc1 (stereo not given) | inactive: > 76.9 µM
CSc1nc2ccc(S(=O)(=O)N3CCc4ccccc43)cc2s1 | inactive: > 76.9 µM
CN(Cc1nc(-c2cccnc2)no1)S(=O)(=O)c1ccc(Br)cc1 | inactive: > 76.9 µM
CCC(=O)N1CCc2cc(S(=O)(=O)NC(CC(C)C)C(=O)N3CCc4ccccc43)ccc21 (stereo not given) | inactive: > 76.9 µM
Cc1c(NC(=O)C2(c3ccccc3)CCOCC2)c(=O)n(-c2ccccc2)n1C | inactive: > 76.9 µM
CCN(C(=O)CCc1nc(-c2ccccc2F)no1)c1cc(OC)ccc1OC | active: 15.2 µM
COc1c(C)cc(Br)cc1C(=O)NCc1cccnc1 | inactive: > 76.9 µM
CCCn1c(SCC(=O)c2ccc3c(c2)OCCO3)nnc1-c1ccco1 | inactive: > 76.9 µM
Cc1cccc(OCC(O)CN2CCN(C3CCCCC3)CC2)c1 (stereo not given) | inactive: > 76.9 µM
COCC(=O)NCc1ccc2c(c1)cc(C)n2C | inactive: > 76.9 µM
O=C(O)CC1CCCC(c2ccccc2)C1=O (stereo not given) | inactive: > 76.9 µM
CC(C)c1[nH]nc2c1C(c1cccc(OC(=O)N3CCOCC3)c1)C(C#N)=C(N)O2 (stereo not given) | inactive: > 76.9 µM
O=C(NC1(C(F)(F)F)NC(=O)N(C2CCCCC2)C1=O)c1cccs1 (stereo not given) | inactive: > 76.9 µM
Cc1noc(C)c1S(=O)(=O)N1CCC(C(=O)NCCN2CCC(C)CC2)CC1 | inactive: > 76.9 µM
COc1ccccc1NC(=O)C1CCCN1C(=O)NCc1ccccc1 (stereo not given) | inactive: > 76.9 µM
O=C(CN(C1CC1)S(=O)(=O)c1ccc(S(=O)(=O)NC2CCCCC2)cc1)Nc1ccccc1 | inactive
O=C(c1ccc(F)cc1)C1CCN(C(=O)c2ccncc2)CC1 | inactive: > 76.9 µM
CCc1cc2cccc(C)c2nc1SCC(=O)N1CCN(C(=O)c2ccco2)CC1 | inactive: > 76.9 µM
CCCCn1c(SCC(=O)NCC2CCCO2)nc2ccc(N3CCOCC3)cc2c1=O (stereo not given) | inactive: > 76.9 µM
O=C(Nc1ccc(-c2cn3ccsc3n2)cc1)C1CC1 | inactive
CC1CN(CCC(=O)Nc2ccc3c(c2)CCC3)CC(C)O1 (stereo not given) | inactive: > 76.9 µM
CC(=O)Nc1cn(C(C)=O)c(C)n1 | inactive: > 76.9 µM

Structure (SMILES) | Potency
CCc1c(C)nc2ncnn2c1N1CCC(C(=O)N2CCN(c3ccccc3)CC2)CC1 | inactive: > 76.9 µM
Cc1cc(C)n(-c2ccc(C(=O)N3CCc4ccccc43)cc2)n1 | inactive: > 76.9 µM
Cc1ccc(S(=O)(=O)C2(C(=O)N3CCN(C4CCCCC4)CC3)CC2)cc1 | inactive: > 76.9 µM
CC1CCCC(C)N1C(=O)c1cc(F)c(F)cc1Cl (stereo not given) | inactive: > 76.9 µM
COc1ccc2[nH]cc(C(=O)N3CCCCC3)c(=O)c2c1 | inactive: > 76.9 µM
CCN1CCCC1CNC(=O)Cn1cnc2sc(C)c(S(=O)(=O)N3CCC(C)CC3)c2c1=O (stereo not given) | inactive: > 76.9 µM
CC(C)C(=O)NC(C)C(c1cccs1)N1CCOCC1 (stereo not given) | inactive: > 76.9 µM
O=c1n(-c2ccccc2)c(=O)n(Cc2ccccn2)n1Cc1ccccn1 | inactive: > 76.9 µM
Cc1ccc(-c2noc(CCC(=O)NCC3CCN(Cc4cccc(C)c4)CC3)n2)cc1 | inactive: > 76.9 µM
CCN1CCN(CCNC(=O)c2cn(C(C)c3ccccc3F)nn2)CC1 (stereo not given) | inactive: > 76.9 µM
CN(C)c1ccc(NC(=O)c2ccncc2)c2ccccc12 | inactive: > 76.9 µM
CN(C1CCCCC1)S(=O)(=O)c1ccc(NC(=O)c2ccc(Br)o2)cc1 | inactive: > 76.9 µM
O=c1oc2c(CN3CCOCC3)c(O)ccc2c2c1CCCC2 | inactive: > 76.9 µM
O=C(CSc1nnc(-c2ccccc2)n1C1CCCCC1)N1CCCC1 | inactive: > 76.9 µM
Cc1c(NC(=O)CN2CCN(C(c3ccccc3)c3ccccc3)CC2)c(=O)n(-c2ccccc2)n1C | inactive: > 76.9 µM
Cc1cccc(-c2cc3nc4c(c(N5CCOCC5)n3n2)CCCC4)c1 | inactive: > 76.9 µM
O=C(CSc1nnc2c3c4c(sc3ncn12)CCCC4)NCc1ccco1 | inactive: > 76.9 µM
CCCCn1nnnc1NCc1cc(OC)c(OC)c(OC)c1 | inactive: > 76.9 µM
Cc1ccc(-c2csc(/C(C#N)=C(\O)CN3CCN(C(=O)c4ccco4)CC3)n2)cc1 | inactive
Cc1csc2c(=O)n3c(nc12)CCCCC3 | inactive: > 76.9 µM
CCNc1nc(NCc2ccccc2)nc(Oc2ccc(=O)[nH]n2)n1 | inactive: > 76.9 µM
CSCCC(NC(=O)c1ccco1)C(=O)OC(C)C(=O)NC(=O)NC1CCCCC1 (stereo not given) | inactive: > 76.9 µM
